Measurements from PubChem BioAssay AID360 (National Center for Advancing Translational Sciences (NCATS), 2006).
The campaign covered roughly 48,000 compounds. About 550 (1.1%) were called active. Not shown: some 4% with an inconclusive outcome. No stated cut-off is given here; in the data, active means potency below about 15 µM; inconclusive means mostly about 16 µM to 33 µM; inactive means weaker than that. Some of the results follow.

target: Lysosomal acid glucosylceramidase (Homo sapiens) (UniProt P04062); assay: Glucocerebrosidase; conditions: purified enzyme, resorufin glucoside fluorescence (screen aimed at inhibitors), 20 min;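 further: the screen sought inhibitors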
Summary of the method: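 Wild-type enzyme at 0.2 nM final in 50mM citric acid/KH2PO4, 10mM sodium taurocholate, 0.01% tween-20, pH 5.9, with resorufin beta-D-glucopyranoside at 30 uM final. Compounds titrated, 20 min at RT, red fluorescence read; AC50 from titration.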
Potency means the concentration at half of the fitted maximal effect.

Sequence of UniProt P04062 (P04062 whole entry, looked up): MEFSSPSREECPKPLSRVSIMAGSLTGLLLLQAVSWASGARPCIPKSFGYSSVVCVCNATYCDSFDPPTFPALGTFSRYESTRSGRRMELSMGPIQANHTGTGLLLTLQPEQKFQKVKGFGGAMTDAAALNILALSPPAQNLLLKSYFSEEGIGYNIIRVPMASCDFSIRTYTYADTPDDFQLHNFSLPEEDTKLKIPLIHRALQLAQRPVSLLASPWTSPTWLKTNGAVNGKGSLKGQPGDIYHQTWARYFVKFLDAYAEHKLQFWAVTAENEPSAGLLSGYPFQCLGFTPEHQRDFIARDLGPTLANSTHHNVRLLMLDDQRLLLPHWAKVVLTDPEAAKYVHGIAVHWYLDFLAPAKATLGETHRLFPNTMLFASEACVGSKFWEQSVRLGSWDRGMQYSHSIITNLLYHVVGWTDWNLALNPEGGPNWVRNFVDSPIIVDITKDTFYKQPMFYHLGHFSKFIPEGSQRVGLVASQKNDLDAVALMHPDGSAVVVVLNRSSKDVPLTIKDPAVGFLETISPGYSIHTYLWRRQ

Potency, inactive:
COC(=O)c1cc(NS(=O)(=O)c2ccc(OC)c(OC)c2)ccc1Cl > 76.9 µM
O=C(CN1CCN(S(=O)(=O)c2ccc(Cl)cc2)CC1)Nc1ccc2c(c1)OCCO2 > 76.9 µM
O=C(c1ccc(NC(=O)C2(c3ccccc3)CCOCC2)cc1)N1CCOCC1 > 76.9 µM
O=C(c1ccco1)N1C(=O)c2cccc3c(S(=O)(=O)N4CCCC4)ccc1c23 > 76.9 µM
COc1ccc(Br)cc1CNC(=O)C1CCN(S(=O)(=O)N2CCCC2)CC1 > 76.9 µM
CC(=O)Nc1ccc(C(=O)CSc2nnnn2C(C)C)cc1 > 76.9 µM
CC1(C)Cc2ccccc2-c2nnc(SCC(=O)Nc3ccc4c(c3)OCO4)n21 > 15.4 µM
Cc1ccc(N(CC(=O)NCC2CCCO2)S(C)(=O)=O)cc1Cl (configuration not stated) > 76.9 µM
CC(=O)N1CCN(Cc2nc3cc(NC(=O)C4CCCCC4)ccc3n2C)CC1 > 76.9 µM
O=C(Cc1cccs1)NCc1cccs1 > 76.9 µM
Fc1cc(F)c2nc(N3CCOCC3)sc2c1 > 76.9 µM
O=C(NCC1CCCO1)c1nn2cccnc2c1Cl (configuration not stated) > 76.9 µM
COc1ccccc1-n1nnnc1SCC(=O)NC1CCCC1 > 76.9 µM
O=C(c1cc2ccccc2oc1=O)N1CCN(C(=O)C2CCCO2)CC1 (configuration not stated) > 76.9 µM
COc1ccc(-c2nc(C#N)c(N3CCN(c4cccc(Cl)c4)CC3)o2)cc1OC > 76.9 µM
CCOC(=O)Cn1c(CN(Cc2ccccc2)Cc2ccccc2)nc2c1c(=O)[nH]c(=O)n2C > 76.9 µM
CCCn1c(SCC(=O)N2CCCc3ccccc32)nnc1-c1ccccn1 > 76.9 µM
COc1cccc(C2=CC(c3ccc(N(C)C)cc3)n3ncnc3N2)c1 (configuration not stated) > 76.9 µM
CCOC(=O)c1ccc(N2C(=O)c3n[nH]c(C)c3C2c2ccco2)cc1 (configuration not stated) > 76.9 µM
COc1ccccc1CCNC(=O)C1CCCO1 (configuration not stated) > 76.9 µM
CCN(CC)CCN1C(=O)C(O)=C(C(=O)c2cccs2)C1c1ccc(C)o1 (configuration not stated) > 76.9 µM
Cn1c(=O)c(=O)n(C)c2cc(S(=O)(=O)NCCc3ccccc3)ccc21 > 76.9 µM
COc1ccc(C(=O)NC(C)c2nnc(SCC(=O)Nc3nc4ccccc4s3)n2C)cc1 (configuration not stated) > 76.9 µM
COCC(=O)N(Cc1cc2ccccc2[nH]c1=O)c1ccc(OC)cc1 > 76.9 µM
Cc1ccc(SCCCCN2C(=O)NC(C)(C)C2=O)cc1 > 76.9 µM
Nc1nc2n(n1)C(c1cccs1)CC(c1ccccc1)N2 (configuration not stated) > 76.9 µM
O=C(c1ccccc1CCc1ccccc1)N1CCOCC1 > 76.9 µM
COCCOC(=O)C1=C(C)Nc2nc(C)nn2C1c1ccccc1 (configuration not stated) > 76.9 µM
O=C(NCc1ccccc1)NC1(C(=O)N2CCN(c3ccccc3)CC2)CCCCC1 > 76.9 µM
Cn1c(CNc2nc(-c3ccccc3)cs2)nnc1SCC(=O)N1CCc2ccccc21
Nc1c(-c2ccccc2)n[nH]c1-c1ccccc1 > 76.9 µM
O=c1[nH]c2ccsc2c(=O)n1-c1ccc(F)c(Cl)c1 > 76.9 µM
COCCCNC(=O)c1ccc(NS(C)(=O)=O)cc1 > 76.9 µM
O=C(CSc1nnc(COc2ccc(Cl)cc2)n1Cc1ccco1)c1ccccc1F > 76.9 µM
COc1ccccc1C(c1nnnn1C(C)(C)C)N1CCN(Cc2ccncc2)CC1 (configuration not stated) > 76.9 µM
COc1cc(C(=O)Nc2ccc(NC(=O)C(C)C)nc2)cc(OC)c1OC > 76.9 µM
CCOC(=O)c1cc2c(=O)n3ccccc3nc2n(Cc2ccco2)c1=NC(=O)c1cccnc1 > 76.9 µM
COc1cc(S(=O)(=O)NCCN2CCOCC2)c(OC)cc1Cl > 76.9 µM
COc1ccc(NC(=O)c2cnc3sccn3c2=O)cc1 > 76.9 µM
O=C(CCN1C(=O)C2C3C=CC(C3)C2C1=O)N1CCN(c2cccc(Cl)c2)CC1 (configuration not stated) > 76.9 µM
CSc1nc(C)cc(OCC(=O)n2nc(C)cc2C)n1 > 76.9 µM
COc1cc(OC)cc(C(=O)N2CCN(c3ncccn3)CC2)c1 > 76.9 µM
Cc1ccc(Oc2ccccc2)c(NC=O)c1 > 76.9 µM
CCS(=O)(=O)n1nc(C(=O)N2CCOCC2)nc1N > 76.9 µM
Nn1c(SCC(=O)N2CCOCC2)nnc1-c1ccc(Cl)cc1Cl > 76.9 µM
CC(=O)Nc1cccc(NC(=O)CSc2nnnn2C(C)C)c1 > 76.9 µM
CN(Cc1cccs1)C(=O)COc1ccc(-c2nnco2)cc1 > 76.9 µM
O=C(Nc1cccnc1)c1ccc(Br)s1
COc1cccc(NC(=O)NC2CCN(Cc3nnnn3Cc3ccc(F)cc3)CC2)c1 > 76.9 µM
C=CCn1c(=N)c(C(=O)NCCCOC)cc2c(=O)n3ccccc3nc21 > 76.9 µM
COc1ccc(S(=O)(=O)N2CCC(C(=O)Nc3ccc(OC)c(OC)c3)CC2)cc1C > 76.9 µM
Cc1ccc(-n2c(SCc3cn4ccsc4n3)nc3ccccc3c2=O)cc1
COCc1nc(-c2ccc(-c3ccccc3)nc2OC)no1
N#Cc1c(N)c(C#N)c(-c2ccc(O)cc2)c2c1CCCC2 > 76.9 µM
CCN(CC)CCN(Cc1cc2cc(C)ccc2[nH]c1=O)C(=O)Nc1ccccc1OC > 76.9 µM
CCOC(=O)C1=C(CN2CCSCC2)NC(=O)NC1c1cc(C)ccc1C (configuration not stated) > 76.9 µM
O=C(CSc1nc(-c2cccs2)cc(C(F)(F)F)n1)NCc1ccco1 > 76.9 µM
Cc1ccc2[nH]cc(C(=O)CN3CCN(c4ccccn4)CC3)c2c1 > 76.9 µM
Cc1cc(C)c(C#N)c(SCC(=O)N(C)C2CCCCC2)n1 > 76.9 µM
CCN1CCN(C(=O)CN(C)S(=O)(=O)c2ccc(OC)cc2)CC1 > 76.9 µM
Cc1cccc(-c2nnc(SCC#N)n2Cc2ccccc2)c1 > 76.9 µM
COC(=O)CSc1nc2ccccc2c(=O)n1C > 76.9 µM
O=C(COC(=O)c1ccccn1)NCCCc1ccccc1 > 76.9 µM
CC(C)(C)OC(=O)N1CCC(C(=O)O)CC1 > 76.9 µM
O=C(COc1ccc(F)c(Cl)c1)c1ccc[nH]1 > 76.9 µM
CC(=O)Nc1ccc(S(=O)(=O)Nc2cccc(N(C)S(C)(=O)=O)c2)cc1 > 76.9 µM
COc1ccc(-c2ccc(CCC(=O)O)n2NC(=O)c2cccs2)cc1 > 76.9 µM
Cc1nnc(SCC(=O)Nc2cccc(C(F)(F)F)c2)n1Cc1ccco1 > 76.9 µM
CCN1C(=O)C2(C(C#N)=C(N)Oc3n[nH]c(C(C)C)c32)c2ccccc21 (configuration not stated) > 76.9 µM
COc1ccccc1OCCNC(=O)c1ccccc1C > 76.9 µM
O=C(O)c1cc(-c2ccco2)nc2ccccc12 > 76.9 µM
O=S(=O)(NC1CCCc2ccccc21)c1cnc[nH]1 (configuration not stated) > 76.9 µM
O=C(O)/C(=C1/OC(=O)c2ccccc21)c1ccccc1 > 76.9 µM
Cc1occc1-c1nnc(SCC(=O)c2c(N)n(Cc3ccccc3)c(=O)n(C)c2=O)n1C > 76.9 µM
O=C(Cn1ccc2ccccc2c1=O)N1CCN(c2cccc(Cl)c2)CC1 > 76.9 µM
CC1CC2(CC(C)(C(=O)CSc3n[nH]c(-c4ccccc4Cl)n3)OC2=O)C(=O)O1 (configuration not stated)
COc1ccc2[nH]c3nc(SCc4nnc(-c5ccccc5)o4)nnc3c2c1
CC(C)(Oc1cccc2ccccc12)C(=O)O > 76.9 µM
CC(=O)N1CCN(CC(=O)Nc2c(Cl)cccc2Cl)CC1 > 76.9 µM
CCc1nnc(NC(=O)CCC(=O)N2CCN(Cc3ccc(Cl)cc3)CC2)s1 > 76.9 µM
O=C(CN1CCOCC1)Nc1ccccc1-c1ccccc1 > 76.9 µM
Cn1cc(CNC(=O)C2CCCCC2)cn1 > 76.9 µM
CCc1c(C(=O)N2CCOCC2)csc1C > 76.9 µM
Cc1occc1C(=O)Nc1ccc2c(c1)OCCO2 > 76.9 µM
O=C(CC1SC(=O)N(c2ccccc2)C1=O)Nc1ccccc1 (configuration not stated) > 76.9 µM
CCC(C)(C)NC(=O)C(OC(=O)c1ccco1)c1ccccc1OC (configuration not stated) > 76.9 µM
COc1ccccc1NC(=O)CN1CCN(CC(=O)Nc2cc(NC(C)=O)ccc2OC)CC1 > 76.9 µM
CCCC(=O)NC(C)C(c1cccs1)N1CCN(C)CC1 (configuration not stated) > 76.9 µM
O=C(CS(=O)(=O)Cc1ccccc1)Nc1nc2c(s1)CCCC2 > 76.9 µM
CCS(=O)(=O)NCCc1ccc(OC)c(OC)c1 > 76.9 µM
COC(=O)c1nc2n(n1)C(c1ccc(OC)c(OC)c1)C(C(=O)OC1CCCCC1)=C(C)N2 (configuration not stated) > 76.9 µM
Cc1c(/C(O)=C2/C(=O)C(=O)N(Cc3cccnc3)C2c2cccs2)cnn1-c1ccccc1 (configuration not stated) > 76.9 µM
